Source: paper PMC4336329 (PLoS ONE, 2015)
The campaign covered roughly 310,000 compounds. About 2,200 (0.71%) showed an effect of 50% or more. The effect is printed as a negative number. The list shows a part of the results.

molecular target: human ether-à-go-go-related gene (hERG) potassium channel (human, UniProt Q12809); assay: primary screen, population patch clamp on CHO cells stably expressing hERG
Sequence (Q12809 whole entry, looked up): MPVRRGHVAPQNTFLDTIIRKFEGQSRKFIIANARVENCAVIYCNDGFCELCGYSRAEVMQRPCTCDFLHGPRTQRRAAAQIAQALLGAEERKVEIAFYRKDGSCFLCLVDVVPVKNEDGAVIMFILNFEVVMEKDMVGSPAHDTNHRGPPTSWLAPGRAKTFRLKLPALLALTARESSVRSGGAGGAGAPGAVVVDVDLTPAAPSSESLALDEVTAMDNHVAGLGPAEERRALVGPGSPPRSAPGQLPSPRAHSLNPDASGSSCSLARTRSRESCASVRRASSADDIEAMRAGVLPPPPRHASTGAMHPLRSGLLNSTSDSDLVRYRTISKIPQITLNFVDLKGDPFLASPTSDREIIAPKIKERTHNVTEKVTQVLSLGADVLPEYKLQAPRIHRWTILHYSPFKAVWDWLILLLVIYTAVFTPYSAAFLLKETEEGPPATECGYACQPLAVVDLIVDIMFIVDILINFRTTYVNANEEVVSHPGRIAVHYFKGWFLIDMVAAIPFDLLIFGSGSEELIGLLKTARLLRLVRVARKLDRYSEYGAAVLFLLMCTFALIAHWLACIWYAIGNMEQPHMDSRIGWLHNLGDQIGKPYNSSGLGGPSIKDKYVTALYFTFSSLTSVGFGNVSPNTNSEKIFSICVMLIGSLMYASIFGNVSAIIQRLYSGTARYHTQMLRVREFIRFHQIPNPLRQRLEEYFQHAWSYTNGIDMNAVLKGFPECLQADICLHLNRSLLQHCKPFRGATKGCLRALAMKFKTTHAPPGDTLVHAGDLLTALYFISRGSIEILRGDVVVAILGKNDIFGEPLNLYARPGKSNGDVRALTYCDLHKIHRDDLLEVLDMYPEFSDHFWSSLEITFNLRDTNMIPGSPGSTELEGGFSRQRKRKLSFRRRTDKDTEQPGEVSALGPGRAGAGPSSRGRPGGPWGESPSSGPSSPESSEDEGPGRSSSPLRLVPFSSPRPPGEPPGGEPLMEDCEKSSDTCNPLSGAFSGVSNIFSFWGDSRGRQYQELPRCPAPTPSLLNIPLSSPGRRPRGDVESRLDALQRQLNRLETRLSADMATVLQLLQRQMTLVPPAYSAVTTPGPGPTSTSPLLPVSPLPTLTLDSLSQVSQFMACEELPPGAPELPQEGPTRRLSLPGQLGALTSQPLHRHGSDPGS

Compound | hERG current change (%, negative = inhibition) at 1uM
CNC(=O)OCCc1nccn1C | 4.15%
COc1cc(/C=C(\C#N)C(=O)NCc2ccccc2)ccc1OCc1ccc(C(=O)O)cc1 | -3.89%
CCOc1ccc(N2C(=O)C3=C(C(c4ccc(Cl)cc4)=NCCN3)C2c2cccnc2)cc1 (stereo not shown) | 5.76%
CCN(Cc1ccccc1)S(=O)(=O)c1ccc(OC)cc1 | 1.72%
COc1ccc(-c2cn3c(C)c(C(=O)Nc4cccc(NC(C)=O)c4)sc3n2)cc1 | 6.17%
Cc1ccc2cc(/C=N/Nc3ccc(C(=O)O)cc3)c(Cl)nc2c1 | 10.5%
CC(=O)c1c(C)[nH]c(C(=O)OCC(=O)Nc2cccc(S(=O)(=O)N3CCCC3)c2)c1C | -1.02%
Cc1cc(C(=O)OCCN2C(=O)c3ccccc3C2=O)c2ccccc2n1 | 6.92%
C=CCC1(CC=C)CCCN1C(=O)c1cc(COc2cccc(C(F)(F)F)c2)on1 | 24.8%
CCc1ccc(NC(=O)Cn2nc(C(=O)O)c3ccccc3c2=O)cc1 | 18.5%
Cc1ccc(NC(=O)CC2SCCNC2=O)cc1Cl (stereo not shown) | -21.8%
Br.CCn1c2c(c(=N)c3c1CCC3)CCC2 | 6.51%
CC(C)OC(=O)c1c(NC(=O)c2ccco2)sc2c1CCCCC2 | 9.25%
COc1cc(C2NC(=O)C(C#N)=C(Nc3cccc(C)c3)S2)ccc1O (stereo not shown) | 18.5%
O=C1NN=C(c2ccc(Br)cc2)CC1c1ccc(Cl)cc1 (stereo not shown) | 15.9%
Nc1nc(Nc2ccccc2F)nc(N2CCCC2)c1[N+](=O)[O-] | 12.1%
COCCn1cc(C(=O)N2CCN(C)CC2)c2c3ccccc3n(C)c2c1=O | 6.81%
COc1ccccc1NC(=O)NCC1(N(C)C)CCCCC1 | 12%
CCn1cc(C(=O)NCc2cccs2)c(=O)c2ccc(C)nc21 | 19.4%
CCCCNC(=S)N/N=C1\C(=O)c2cccc3cccc1c23 | 1.84%
COc1ccc(C(C#N)Nc2ccccc2C)cc1 (stereo not shown) | -6.57%
O=C(CN1CCc2ccccc21)NC(=O)NC1CCCCC1 | 6.61%

Compound | hERG current change (%, negative = inhibition) at 1uM
Cc1c(C(=O)OCC(=O)Nc2ccc(N3CCOCC3)cc2)oc2ccccc12 | 12%
O=C(c1ccc([N+](=O)[O-])cc1)N1CCN(C(=O)c2cccnc2)CC1 | 12.8%
O=[N+]([O-])c1ccccc1/C=C/C=N/Nc1nc(N2CCCCC2)nc(N2CCCCC2)n1 | -24.9%
COc1ccc(-c2c(-c3ccccc3)c(C(=O)C(=O)NCCCN(C)C)n3ccc4cc(OC)c(OC)cc4c23)cc1OC | 15.2%
C/C(=N\NC(=O)c1ccccc1C)c1ccc(NC(=O)c2cccs2)cc1 | 3.27%
CCNC(=S)N1CCC(C(=O)c2ccc3c(c2)OCCO3)CC1 | 8.22%
Cc1cccc(NC(=O)C2CCCN(S(=O)(=O)c3cccs3)C2)c1C (stereo not shown) | 10.7%
CCOC(=O)COC(=O)c1ccc(Oc2cc(C)nc(SC)n2)cc1 | -2.55%
C=CCNC(=O)C12CCC(C)(C(=O)C1Br)C2(C)C (stereo not shown) | 19.6%
O=C(Nc1oc2ccccc2c(=O)c1-c1ccc(Br)cc1)c1ccco1 | 2.63%
CCC(=O)Nc1cc(C(=O)O)ccc1Sc1ccc(Cl)cc1 | -11.7%
CS(=O)(=O)N1CCN(CC2CC3C=CC2C3)CC1.O=C(O)C(=O)O (stereo not shown) | 3.8%
O=C(Oc1cc(-c2ccccc2)no1)c1ccc(F)cc1 | -5%
O=C(Nc1ccc(NC(=O)C2CC2)nc1)c1cccs1 | 14.4%
Cn1cc(C(=O)c2ccc(Cl)cc2Cl)cc1C(=O)N/N=C(\N)COc1ccccc1 | 11.9%
COC(=O)c1[nH]c2ccc(F)cc2c1NC(=O)C1=COCCO1 | -2.73%
CC(=O)CC(=O)Nc1ccc(Nc2ccccc2)cc1 | 6.47%
Cn1c(NCc2ccco2)nc2c1c(=O)n(Cc1ccc(Br)cc1)c(=O)n2C | 7.54%
Cc1nn(C)c(Cl)c1C(=O)NC(C(=O)O)c1ccccc1 (stereo not shown) | 7.73%
COCCCNC(=O)c1ccc2c(=O)n(Cc3ccc(OC)cc3)c(=O)[nH]c2c1 | 6.77%
CCOc1cccc(SCc2noc(C(=O)NCCOC)c2C(=O)O)c1 | 8.41%
CCOc1ccc(S(=O)(=O)NCCC(=O)OCC(=O)c2ccc(NC(C)=O)cc2)cc1 | 14.1%

Compound | hERG current change (%, negative = inhibition) at 1uM
N#Cc1nc(COc2cccc(Cl)c2)oc1NCc1ccco1 | -1.39%
O=C(O)CSc1nc(-c2ccccc2)nc2c1CCCC2 | 10.2%
COc1ccc(C2c3[nH]c4ccccc4c3CCN2C(=O)c2cc3ncccn3n2)c(F)c1 (stereo not shown) | 13.5%
c1ccc(CN(Cc2ccccc2)c2c3c(nc4ncnn24)CCC3)cc1 | -5.54%
CC(=O)N1CCN(c2ccc(Oc3ccc([N+](=O)[O-])c(C(F)(F)F)c3)cc2)CC1 | 9.14%
COC(=O)c1cc(OC)c(OC)cc1NC(=O)c1c(-c2ccccc2)noc1C | 1.27%
O=S(=O)(NCc1cccs1)c1ccccc1Cl | 6.3%
CCN1C(=O)c2cccc3c(S(=O)(=O)NCCCN4CCOCC4)ccc1c23 | 4.39%
CCCOc1ccc(C(=O)NCC(c2cccs2)N(C)C)cc1 (stereo not shown) | -1.71%
COc1ccccc1/C=C/C=N/NC(=O)c1ccccn1 | -2.5%
CCCCN(CCCC)C(=S)NC(=O)c1ccccc1Cl | 10.9%
Cc1ccc(C(=O)Cn2nnc3c(sc4nc5c(c(-c6ccccc6)c43)CCC5)c2=O)cc1 | 13.6%
CCCCN(CC(=O)NC1CCCC1)C(=O)C(=O)Nc1ccc2c(c1)OCCO2 | 8.29%
COCCn1nnnc1C(c1ccc(Cl)cc1)N1CCN(C(=O)c2ccco2)CC1.Cl (stereo not shown) | 4.61%
COc1ccccc1[N+](=O)[O-] | 15.7%
CCOC(=O)C(C)Oc1cccc2c(=O)n(CC(=O)N3CCCc4ccccc43)ccc12 (stereo not shown) | 15.8%
Cc1ccc(C2CN(CCC(N)=O)C(=O)CO2)cc1 (stereo not shown) | 5.47%
Cc1cc(S(=O)(=O)Nc2cc(C)c(O)c(C)c2)c(C)s1 | 9.93%
CCN(CC)S(=O)(=O)c1ccc(N2CCN(C)CC2)c(NC(=O)Nc2ccc(C)cc2)c1 | 12.6%
O=[N+]([O-])c1ccc(C(=Nc2cccc3ccccc23)N2CCOCC2)cc1 | 3.71%
CCOC(=O)CN1C(=O)CC(c2ccc([N+](=O)[O-])cc2)C1=O (stereo not shown) | 6.7%
COc1ccc2ccc3c(c2c1)N=CC1(O3)N(C)c2ccccc2C1(C)C (stereo not shown) | 5.08%

Compound | hERG current change (%, negative = inhibition) at 1uM
Cc1cc(/C=C2\SC(=S)NC2=O)c(C)n1-c1cccc(O)c1 | 8.34%
COCCNc1cc(NCCOC)c([N+](=O)[O-])cc1[N+](=O)[O-] | 11%
COc1ccc(NC(=O)Cc2c[nH]c3ccccc23)cc1S(=O)(=O)N1CCCCC1 | 4.42%
CC1(C)N([O-])C(c2ccccc2)=C[N+](=O)C1(C)C | -0.744%
CCCNC(=O)c1cc(S(=O)(=O)N2CCCCC2)ccc1N1CCOCC1 | -9.91%
CSC(C1CCCC1)n1nnc2ccccc21 (stereo not shown) | 16.4%
COc1cccc(NC(=O)C/C(C)=N/NC(=O)c2ccccc2Cl)c1 | 8.32%
C=CCn1c(O)c(C(C)=NCc2ccco2)c(=O)[nH]c1=O | -9.55%
O=[N+]([O-])c1cc(C(F)(F)F)ccc1N1CCN(S(=O)(=O)c2ccc3c(c2)CCCC3)CC1 | 1.7%
COc1ccc(N2CCN(C(=O)CSc3ccccc3)CC2)cc1 | 12.7%
Cc1ccc([N+](=O)[O-])cc1S(=O)(=O)Nc1ccc(-c2ccc(N3CCOCC3)nn2)cc1 | 1.4%
COCCn1c(SCc2cccc([N+](=O)[O-])c2)nc2ccccc2c1=O | -4.67%
C=CCn1c(Cc2ccc(OCC)cc2)nnc1SCC(N)=O | 14%
CCC(CC)NC(=O)Nc1ccc(F)cc1F | 5.72%
CCN(c1nc(N)c(C(=O)N=C(N)N)nc1Cl)C(C)C | -5.52%
Clc1cccc(Cl)c1-c1noc(-c2ccno2)n1 | 13.1%
C/C(CC(=O)Nc1ccccn1)=N\NC(=O)Cc1cccc2ccccc12 | 11.7%
O=C(NNC(=O)c1ccccc1C(=O)O)c1ccc(-c2ccccc2)cc1 | -1.61%
O=C(NC(=S)Nc1ccc(Oc2ccc(Cl)cc2)cc1)c1ccccc1 | 5.53%
Cc1ccc2ccc(C(Nc3ccccn3)c3ccccc3)c(O)c2n1 (stereo not shown) | 4.83%
CC(=O)N1CCN(c2ccc(NC(=O)c3ccc(Cl)c([N+](=O)[O-])c3)cc2)CC1 | 5.32%
O=C(CCNS(=O)(=O)c1ccc(Cl)cc1)N1CCC2(O)CCCCC2C1 (stereo not shown) | 11.7%
